# Some of the results follow. Viral Rep nickase domains cut single-stranded DNA in vitro for 1 h at 37 °C with 3 µM enzyme; only the middle of the 90-letter strands is printed. Numbers give uncut DNA relative to the enzyme-free pool, as log2; more negative means more cut, near 0 not cut, and no call is made. Shares of all reads are compared; where an enzyme cuts many sequences, the uncut ones exceed 0.
# Tested on: T1, Rep nickase domain of tomato golden mosaic virus
# T1 sequence (residues 1-124, tag not shown): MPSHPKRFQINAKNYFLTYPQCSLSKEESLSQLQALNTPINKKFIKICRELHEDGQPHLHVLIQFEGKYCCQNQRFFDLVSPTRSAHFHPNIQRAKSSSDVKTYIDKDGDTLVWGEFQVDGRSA
# Assay: uncleaved DNA left, log2 of reads against the no-enzyme library (log2 ratio); higher = less cleavage (more negative = more Rep cleavage of the k-mer); sequences stand for … in CTCGTCCG…ACCGGAGA
# Protocol: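 A pool of 90-nt single-stranded DNAs with seven random bases just before the constant AC of the nick site (name = the seven bases) was cut by 3 µM recombinant His6-SUMO-tagged Rep nickase domain (300 nM DNA, 50 mM HEPES pH 8.0, 50 mM NaCl, 1 mM MnCl2, 1 h, 37 °C, three replicates). Uncut DNA was amplified and sequenced.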
row,Sequence,uncleaved DNA left (log2)
1,ATGATAA,0.0474
2,GTCCGTT,-0.0734
3,TGCGTGT,-0.106
4,TATGTTC,-0.0383
5,GTGCTGA,0.0597
6,GTACCCT,-0.0486
7,AGACGCT,0.0562
8,GGGAAGA,0.0553
9,ATGTTTG,0.164
10,AAGCAAG,0.0248
11,GACTGCC,0.058
12,TGACGAG,-0.033
13,TGACTCT,-0.229
14,GGTATAC,0.0378
15,ACGAAGA,0.0552
16,GTTCATG,-0.0265
17,AAAAACG,0.0852
18,TCGCGCA,-0.143
19,GTGTTGG,0.0148
20,GGATCAT,-0.159

row,Sequence,uncleaved DNA left (log2)
1,TGGACAT,-0.0549
2,TCCAATA,0.0277
3,CCATCCC,-0.219
4,ACTTCGA,-0.0988
5,GTGAGAA,0.0962
6,TGAGCGA,0.0494
7,AACGGAT,0.277
8,GTGAAGG,0.0861
9,AGGCTAT,0.00381
10,TTGATTC,0.0114
11,CAACTAT,-0.143
12,TCCCGTT,-0.193
13,TGCGGTA,0.0726
14,GAAAAGG,0.128
15,TAGAAGC,-0.0672
16,CAATCGC,-0.188
17,GAACCGG,0.238
18,TATTCAT,-0.0484
19,AAGTATA,0.0443
20,TTCTCTG,-0.061
